The supplement of paper PMC8728848
Some of the results follow.

How the values were obtained:
Experiment in all cases: glycan array binding signal (z-score within array); higher = stronger binding
Details in all cases: glycan notation: IUPAC condensed, linker removed
Gal(b1-4)Glc = biological target: Gal(b1-4)Glc
Outline: (§1)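 Glycan array data came from 3228 arrays in the Consortium for Functional Glycomics database, and only arrays with an available protein sequence were kept. Glycan names were put into IUPAC-condensed notation, and columns mapping to the same glycan were averaged. The binding signal is a within-array Z-score, averaged across arrays of one protein sequence run at different concentrations or buffers and across linkers. A negative Z-score can be read as non-binding.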

Gal(b1-4)Glc6S = biological target: Gal(b1-4)Glc6S
Outline: as §1

Gal(b1-4)GlcNAc = biological target: Gal(b1-4)GlcNAc
Outline: as §1

[1] = biological target: Gal(b1-4)GlcNAc(b1-2)Man(a1-3)[Gal(b1-4)GlcNAc(b1-2)Man(a1-6)]Man(b1-4)GlcNAc(b1-4)GlcNAc
Outline: as §1

[2] = biological target: Gal(b1-4)GlcNAc(b1-3)Gal(b1-4)Glc
Outline: as §1

[3] = biological target: Gal(b1-4)GlcNAc(b1-3)Gal(b1-4)GlcNAc
Outline: as §1

[4] = biological target: Gal(b1-4)GlcNAc(b1-3)Gal(b1-4)GlcNAc(b1-3)Gal(b1-4)GlcNAc
Outline: as §1

[5] = biological target: Gal(b1-4)GlcNAc(b1-3)Gal(b1-4)[Fuc(a1-3)]GlcNAc(b1-3)Gal(b1-4)[Fuc(a1-3)]GlcNAc
Outline: as §1

[6] = biological target: Gal(b1-4)GlcNAc(b1-3)GalNAc
Outline: as §1

[7] = biological target: Gal(b1-4)GlcNAc(b1-3)[Gal(b1-4)GlcNAc(b1-6)]GalNAc
Outline: as §1

[8] = biological target: Gal(b1-4)GlcNAc(b1-6)Gal(b1-4)GlcNAc(b1-6)GalNAc
Outline: as §1

[9] = biological target: Gal(b1-4)GlcNAc(b1-6)GalNAc
Outline: as §1

[10] = biological target: Gal(b1-4)GlcNAc(b1-6)[Gal(b1-3)]GalNAc
Outline: as §1

Gal3S(b1-3)GalNAc = biological target: Gal3S(b1-3)GalNAc
Outline: as §1

Gal3S(b1-3)GlcNAc = biological target: Gal3S(b1-3)GlcNAc
Outline: as §1

[11] = biological target: Gal3S(b1-3)[Fuc(a1-4)]GlcNAc
Outline: as §1

Gal3S(b1-4)Glc = biological target: Gal3S(b1-4)Glc
Outline: as §1

Gal3S(b1-4)Glc6S = biological target: Gal3S(b1-4)Glc6S
Outline: as §1

Gal3S(b1-4)GlcNAc = biological target: Gal3S(b1-4)GlcNAc
Outline: as §1

Gal3S(b1-4)GlcNAc6S = biological target: Gal3S(b1-4)GlcNAc6S
Outline: as §1

Gal3S6S(b1-4)GlcNAc = biological target: Gal3S6S(b1-4)GlcNAc
Outline: as §1

Gal3S6S(b1-4)GlcNAc6S = biological target: Gal3S6S(b1-4)GlcNAc6S
Outline: as §1

Gal4S(b1-4)GlcNAc = biological target: Gal4S(b1-4)GlcNAc
Outline: as §1

Gal4S6S(b1-4)GlcNAc = biological target: Gal4S6S(b1-4)GlcNAc
Outline: as §1

Gal6S(b1-4)Glc = biological target: Gal6S(b1-4)Glc
Outline: as §1

Gal6S(b1-4)Glc6S = biological target: Gal6S(b1-4)Glc6S
Outline: as §1

Gal6S(b1-4)GlcNAc = biological target: Gal6S(b1-4)GlcNAc
Outline: as §1

GalNAc(a1-3)Gal = biological target: GalNAc(a1-3)Gal
Outline: as §1

GalNAc(a1-3)GalNAc = biological target: GalNAc(a1-3)GalNAc
Outline: as §1

[12] = biological target: GalNAc(b1-3)Gal(a1-4)Gal(b1-4)GlcNAc
Outline: as §1

GalNAc(b1-3)GalNAc = biological target: GalNAc(b1-3)GalNAc
Outline: as §1

GalNAc(b1-4)GlcNAc = biological target: GalNAc(b1-4)GlcNAc
Outline: as §1

Glc(a1-4)Glc = biological target: Glc(a1-4)Glc
Outline: as §1

Glc(a1-6)Glc(a1-6)Glc = biological target: Glc(a1-6)Glc(a1-6)Glc
Outline: as §1

Glc(b1-4)Glc = biological target: Glc(b1-4)Glc
Outline: as §1

Glc(b1-6)Glc = biological target: Glc(b1-6)Glc
Outline: as §1

GlcA(b1-3)Gal = biological target: GlcA(b1-3)Gal
Outline: as §1

GlcA(b1-6)Gal = biological target: GlcA(b1-6)Gal
Outline: as §1

B1: PMA (Polygonatum multiflorum) (protein)
chain: LLTTTLFVFISSTRSLASTNVLYSDVGNAILNAKESLIYGDYRLDMQSDCNLVLYNKAAPYWASGTRWSWGGNCHLNLQSNGELVMYAYLGRTRIAIWRSGIISATGSYALVLKYDGALHVHGPSLWSTNATGPTTPTTASWSIDSTLWSGDVATIGPTIANGDYKLELLDTCNLTLSNTKTGQVLWYTNTTDWVHDCYVNIEGNGELKIKYLGGATLWSNKVGAGYTNNYVLGLRPDGKLDTYNAPIWSPTIGPGVHVAPAVYNASSNAVAAEGNGEKIAMVTGRAKNST
- glycan array binding signal (z-score) (Gal(b1-4)Glc): -0.241
- glycan array binding signal (z-score) (Gal(b1-4)Glc6S): -0.246
- glycan array binding signal (z-score) (Gal(b1-4)GlcNAc): -0.068
- glycan array binding signal (z-score) [1]: 7.37
- glycan array binding signal (z-score) [2]: -0.256
- glycan array binding signal (z-score) [3]: -0.253
- glycan array binding signal (z-score) [4]: -0.197
- glycan array binding signal (z-score) [5]: -0.246
- glycan array binding signal (z-score) [6]: -0.237
- glycan array binding signal (z-score) [7]: -0.238
- glycan array binding signal (z-score) [8]: -0.205
- glycan array binding signal (z-score) [9]: -0.218
- glycan array binding signal (z-score) [10]: -0.247
- glycan array binding signal (z-score) (Gal3S(b1-3)GalNAc): -0.258
- glycan array binding signal (z-score) (Gal3S(b1-3)GlcNAc): -0.25
- glycan array binding signal (z-score) [11]: -0.243
- glycan array binding signal (z-score) (Gal3S(b1-4)Glc): -0.248
- glycan array binding signal (z-score) (Gal3S(b1-4)Glc6S): -0.243
- glycan array binding signal (z-score) (Gal3S(b1-4)GlcNAc): -0.247
- glycan array binding signal (z-score) (Gal3S(b1-4)GlcNAc6S): -0.232
- glycan array binding signal (z-score) (Gal3S6S(b1-4)GlcNAc): -0.252
- glycan array binding signal (z-score) (Gal3S6S(b1-4)GlcNAc6S): -0.239
- glycan array binding signal (z-score) (Gal4S(b1-4)GlcNAc): -0.248
- glycan array binding signal (z-score) (Gal4S6S(b1-4)GlcNAc): -0.223
- glycan array binding signal (z-score) (Gal6S(b1-4)Glc): -0.257
- glycan array binding signal (z-score) (Gal6S(b1-4)Glc6S): -0.242
- glycan array binding signal (z-score) (Gal6S(b1-4)GlcNAc): -0.244
- glycan array binding signal (z-score) (GalNAc(a1-3)Gal): -0.253
- glycan array binding signal (z-score) (GalNAc(a1-3)GalNAc): -0.24
- glycan array binding signal (z-score) [12]: -0.236
- glycan array binding signal (z-score) (GalNAc(b1-3)GalNAc): -0.2
- glycan array binding signal (z-score) (GalNAc(b1-4)GlcNAc): -0.246
- glycan array binding signal (z-score) (Glc(a1-4)Glc): -0.238
- glycan array binding signal (z-score) (Glc(a1-6)Glc(a1-6)Glc): -0.183
- glycan array binding signal (z-score) (Glc(b1-4)Glc): -0.221
- glycan array binding signal (z-score) (Glc(b1-6)Glc): 0.21
- glycan array binding signal (z-score) (GlcA(b1-3)Gal): -0.254
- glycan array binding signal (z-score) (GlcA(b1-6)Gal): -0.257
